Assay results: PMC4336329 (PLoS ONE, 2015)
Hit rate of the full screen: of about 310,000 compounds, about 2,200 (0.71%) showed an effect of 50% or more. Effects have a minus sign here. The list shows a part of the results.

Target: human ether-à-go-go-related gene (hERG) potassium channel (human, UniProt Q12809)
Assay: primary screen, population patch clamp on CHO cells stably expressing hERG

Sequence of human ether-à-go-go-related gene (hERG) potassium channel (Q12809 whole entry, looked up): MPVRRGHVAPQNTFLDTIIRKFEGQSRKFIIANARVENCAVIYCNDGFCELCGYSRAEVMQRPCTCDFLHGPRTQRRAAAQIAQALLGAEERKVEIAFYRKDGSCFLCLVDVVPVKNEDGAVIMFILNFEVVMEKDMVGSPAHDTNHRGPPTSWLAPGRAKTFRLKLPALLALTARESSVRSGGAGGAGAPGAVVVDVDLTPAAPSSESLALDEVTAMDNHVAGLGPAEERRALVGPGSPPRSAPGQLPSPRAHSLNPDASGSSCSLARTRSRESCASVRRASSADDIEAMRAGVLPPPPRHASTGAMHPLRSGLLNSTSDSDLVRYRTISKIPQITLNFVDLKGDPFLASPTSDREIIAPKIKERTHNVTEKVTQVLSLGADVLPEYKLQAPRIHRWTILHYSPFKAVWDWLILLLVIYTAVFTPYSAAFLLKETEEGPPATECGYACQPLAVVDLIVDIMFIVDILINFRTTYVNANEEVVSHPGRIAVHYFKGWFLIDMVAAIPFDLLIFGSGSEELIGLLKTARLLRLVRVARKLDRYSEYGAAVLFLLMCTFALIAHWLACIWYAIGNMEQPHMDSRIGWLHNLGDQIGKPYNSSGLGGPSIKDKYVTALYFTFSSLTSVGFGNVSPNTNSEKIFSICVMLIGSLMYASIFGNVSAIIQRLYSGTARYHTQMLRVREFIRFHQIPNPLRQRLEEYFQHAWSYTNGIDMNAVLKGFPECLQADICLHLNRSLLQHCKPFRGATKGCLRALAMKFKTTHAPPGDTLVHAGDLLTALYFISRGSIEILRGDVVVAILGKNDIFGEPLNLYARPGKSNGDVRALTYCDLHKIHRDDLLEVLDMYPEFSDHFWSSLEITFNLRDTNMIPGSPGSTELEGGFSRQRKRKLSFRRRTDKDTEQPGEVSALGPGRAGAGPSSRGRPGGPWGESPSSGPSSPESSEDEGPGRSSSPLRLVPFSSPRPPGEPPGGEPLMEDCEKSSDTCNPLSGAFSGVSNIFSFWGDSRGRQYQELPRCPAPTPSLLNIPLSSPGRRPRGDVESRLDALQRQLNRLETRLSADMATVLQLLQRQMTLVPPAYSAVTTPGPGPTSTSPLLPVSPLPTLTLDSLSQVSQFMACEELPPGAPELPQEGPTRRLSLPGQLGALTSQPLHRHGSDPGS

Point of comparison: CCOC(=O)C1=C(N)Oc2cc(O)ccc2C1c1ccccc1 (centres unmarked), “hERG current change (%, negative = inhibition) at 1uM” value 9.31%. Against it:
- Nc1nc(CN2CCN(Cc3ccccc3)CC2)nc(Nc2ccccc2)n1 — lower, -56.3%
- CCOc1ccccc1N(CC(=O)NCC1CCCO1)C(=O)CNS(=O)(=O)c1ccccc1 (centres unmarked) — higher, 9.45%
- COc1cccc(NC2=NC3(CCCCC3)N=C(N)N2)c1 — higher, 15.1%
- Cc1nn(CC(=O)Nc2ccncc2)c(C)c1[N+](=O)[O-] — lower, 8.43%
- Br.CCOCc1cn(CC(=O)c2ccc(Cl)cc2)c(C)nc1=N — higher, 12.1%
- O=C(Nc1nnc(S(=O)(=O)N2CCOCC2)s1)c1ccc(F)cc1 — lower, 6.29%
- CCc1ccccc1NC(=O)Cn1nc(C(F)(F)F)cc1C1CC1 — higher, 17.5%
- Cc1csc(NC(=O)CCSCCc2ccccn2)n1 — lower, 0.214%
- Cc1ccc(S(=O)(=O)NCC(=O)N(CC(=O)NC(C)(C)C)Cc2cccs2)cc1 — lower, 7.98%
- O=C(CN1CCN(c2ccccn2)CC1)Nc1cc(C(F)(F)F)ccc1Cl — lower, 5.73%
- O=C1C2CC=CCC2C(=O)N1CNc1ccccc1 (centres unmarked) — higher, 12.3%
- CCc1cccc(NC(=S)N(CCOC)C2CCN(C(C)=O)CC2)c1 — lower, 7.82%
- Cc1ccc(-c2cnn(-c3ccccc3)c2N)cc1 — lower, 8.75%
- C=CCNC(=O)c1onc(CSc2ccccc2C)c1C(=O)O — lower, -10.5%
- Cc1nc2ccc(NS(=O)(=O)c3ccccc3Cl)cc2s1 — lower, 7.78%
- COc1ccc(N2CCN(C(=O)COc3cccc4ccccc34)CC2)cc1 — lower, -15.6%
- OC12CCCCC1C(c1ccccc1)NCC2 (centres unmarked) — higher, 12%
- COc1ccc(/C=N/Nc2nc(Nc3ccccc3)nc(N3CCCC3)n2)cc1[N+](=O)[O-] — lower, 6.26%
- Cn1nc(C2CC2)cc1NC(=O)CC(CC(=O)O)c1ccccc1 (centres unmarked) — higher, 14.1%
- COC(=O)c1[nH]c2ccc(C)cc2c1NC(=O)CN1CCCc2ccccc21 — higher, 9.56%
- CN(CC(=O)Nc1cccc(F)c1)C(=O)c1ccc(-c2cccc(C(F)(F)F)c2)o1 — higher, 10.6%
- Cc1ccc(Cl)cc1NC(=O)CCNC(=O)N1CC(=O)Nc2ccccc21 — higher, 15.5%
- COCCN1C(=O)C(=O)/C(=C(/O)c2ccc(S(=O)(=O)N3CCOCC3)cc2)C1c1ccc(O)c(OC)c1 (centres unmarked) — higher, 15.2%
- c1ccc(Cn2nnc3cnccc32)cc1 — lower, 5.52%
- C/C(=N\NC(=O)c1ccc(NS(=O)(=O)c2cccs2)cc1)c1ccc(Cl)cc1 — lower, 1.82%
- O=C(c1ccccc1)c1c[nH]cc1-c1ccccc1 — lower, 7.33%
- Cc1ccc(C2=NS(=O)(=O)N(C)C(C(=O)NC(C)c3ccccc3)=C2)cc1 (centres unmarked) — lower, 8.91%
- CC(=O)c1cccc(NC(=O)CNC(=O)c2sc3ccccc3c2Cl)c1 — lower, 9%
- CCOC(=O)NN1C(=O)c2ccccc2NC1c1ccccc1O (centres unmarked) — higher, 15%
- Cc1c(C=O)c2ccccc2n1CC(=O)O — higher, 19.8%
- CCCCC(=O)Nc1ccc(C(=O)NCCc2ccccc2)cc1 — lower, -0.887%
- CCCCn1c(N)c(N(Cc2ccccc2OC)C(=O)CCC(C)C)c(=O)[nH]c1=O — higher, 15%
- COc1ccc(C(=O)c2cnc(C(C)C)n2C)cc1 — higher, 11.9%
- Cc1cc(NC(=O)COC(=O)C2COc3ccccc3O2)no1 (centres unmarked) — higher, 11.3%
- Cc1cccc(NC(=O)CSc2nnc([C@@H](N)Cc3ccccc3)o2)c1C.Cl — lower, 7.13%
- CCOC(=O)Cc1csc(NC(=O)CN(C)S(=O)(=O)c2cccc3cccnc23)n1 — lower, 0.637%
- CC(C)[C@H](NC(=O)c1ccccc1F)C(=O)Nc1nc2c(s1)CCCC2 — lower, 0.953%
- COC(=O)c1nnc(-c2ccccc2)c(-c2ccccc2)n1 — lower, 9.12%
- CCCOc1nc2ccccc2cc1/C=C/C(=O)O — lower, 1.51%
- CC(OC(=O)CNC(=O)c1ccco1)C(=O)N(C)c1ccccc1 (centres unmarked) — higher, 12%
- CC(=O)OCCNC(=O)c1cccnc1 — higher, 14.8%
- CN1CCN(c2nc3c(c(=O)[nH]c(=O)n3C)n2Cc2ccc(Cl)cc2)CC1 — lower, 7.1%
- O=S(=O)(CC(c1ccccc1)N1CCCCC1)c1ccc(Cl)cc1 (centres unmarked) — lower, 7.99%
- Cc1ccc(S(=O)(=O)NC(CC(=O)O)c2ccco2)cc1 (centres unmarked) — lower, 2.86%
- COc1cc(C(N)=O)cc(Br)c1OC — lower, -12.3%
- Cc1ccccc1C(=O)NC(=S)Nc1ccc(Cc2ccncc2)cc1 — higher, 11.2%
- CCN(CC)CCN(Cc1cc2ccc(C)c(C)c2[nH]c1=O)C(=S)NCc1ccco1 — lower, -21.7%
- CCOC(=O)c1sc(NC(=O)COC(=O)c2ccco2)nc1C — higher, 12.5%
- CC(C)C(=O)NNC(=O)c1csc(-c2cccs2)n1 — higher, 12.8%
- C/C(=N/Nc1cc(-c2ccccc2)nc(-c2ccccc2)n1)c1ccc(O)cc1 — higher, 13.4%
- CCOC(=O)c1c(N)nn(C(=O)CC)c1-c1ccccc1 — higher, 10.3%
- Cc1cccc(C(=O)NCC(=O)N(C)CC(=O)Nc2ccc(N3CCOCC3)cc2)c1 — higher, 12.7%
- O=C(O)/C=C\C(=O)Nc1ccccc1F — higher, 13.3%
- CCOC(=O)/C(C#N)=C/c1cccc([N+](=O)[O-])c1 — higher, 16.8%
- C=CCSc1n[nH]c(-c2cccs2)n1 — higher, 11.6%
- O=C(COc1cc(Cl)c(Cl)cc1Cl)NC(=O)Nc1ccc2c(c1)OCCO2 — higher, 12.2%
- CCO[C@@H]1OC(C(N)=O)=C[C@H](c2ccc(Br)cc2)[C@H]1CCCO — lower, 2.68%
- CN1CC=C2C(C#N)=C(N)C(C#N)(C#N)[C@H](c3cccc(Cl)c3)C2C1 (some centres unmarked) — lower, 1.39%
